From the RNAGym collection of RNA variant scans (doi:10.1073/pnas.2313332121)
Variants at the floor of the assay are shown more often than the library holds them.

B1: TPR 5TU (parent)
chain: GGAUCUUCUCGAUCUAACAAAAAAGACAAAUCUGCCACAAAGCUUGAGAGCAUCUUCGGAUGCAGAGGCGGCAGCCUUCGGUGGCGCGAUAGCGCCAACGUUCUCAACUAUGACACGCAAAACGCGUGCUCCGUUGAAUGGAGUUUAUCAUG

Variants of: B1
Test: polymerase ribozyme fitness, log enrichment relative to wild type (log ratio); higher = more active; in vitro selection for triplet polymerase activity
Summary of the method: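 Streptavidin-bead capture of gel-excised extended constructs, followed by RT-PCR, closed a single triplicate in vitro selection round. That round began by annealing PCR-built, transcribed mutant libraries of each subunit of a heterodimeric triplet polymerase ribozyme with a biotinylated primer, the partner subunit and triplets, then incubating them frozen at −7 °C. After Illumina sequencing of inputs and outputs, genotypes needed ≥10 input reads and ≥1 read per output. Fitness is the base-2 logarithm of genotype enrichment over wild-type enrichment, using inverse-variance-weighted replicate averages.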

Variant	polymerase ribozyme fitness (log ratio)
C14G C18U A52G G81U G92A C131G	≤ -4.2
U13G A26C G84U A97U C118U	≤ -4.2
U13G A17U A23U C43U A49G G86A A98U G124U U134C	≤ -4.2
A12U A24C C27U G58C G84A A98G	≤ -4.2
U13C A52G A64G G68A	≤ -4.2
A12U C116G	-0.634
A12U G92A A98G C125G G128U	≤ -4.2
C14A A16C A28G A60G C79G A91G A122C	≤ -4.2
C14A A26G U53A G59A A113C U127A	≤ -4.2
A12U C14A A28G C79A U111G G133A G136U G140U	≤ -4.2
A12U C35A U78G G92A	≤ -4.2
U13G A39U G65U G94A C114G C123U U135C G136C	≤ -4.2
U13C U15G G68A C79G G136A G141A U144A	≤ -4.2
C14G A26U A64U C79A G92U C93U	≤ -4.2
A12U C87G A89G A113G C131U	≤ -4.2
U13C A16G U44A C85G	≤ -4.2
C14G C54U G59C C63U A110U G143C	≤ -4.2
U13C C27A A49C U56A A97U	≤ -4.2
A12U C87A	-4.15
C14G A16G C18A G25U U33G G42C C54U C85G A91U A107G	≤ -4.2
C14G C27G A41C U55A G94C C95G A107G	≤ -4.2

Variant	polymerase ribozyme fitness (log ratio)
A12U G59A C75G U127G	-4.12
U13G C35A A52C	≤ -4.2
C14G A30U A41C C43U G50C U55G C75G C118U A119C	≤ -4.2
U13G G83U C108U	≤ -4.2
A12U C96U U144G	0.0703
C14A A41C G70A G94C C105G A110G	≤ -4.2
A12U C85G C123U U127A	≤ -4.2
C14G A41U G62C C95U C96A G112U A142U U146A A150G	≤ -4.2
U13C A40C G48C G50C G83U	≤ -4.2
C14G A39C G68U	≤ -4.2
U13A C14G A26G U56A U109C C123A U146A	≤ -4.2
U13A U55A G58U A60G C87G A115C U151G	≤ -4.2
C14G A24G C27G U53A C57G C95A C96A A119U	≤ -4.2
C14G A41U C63G U102C	≤ -4.2
A12U G141C	-0.54
A12U C32G A49C G50A C75G C95U A122G C129A	≤ -4.2
U13G C18G A37G C57A G58A U61A G83A C87U A97C A115G	≤ -4.2
C14G A49G	-2.92
U13A G25U C85G	-3.79
A12U A60G U82G A91C	≤ -4.2
U13A G42C C54U G94A G143C	≤ -4.2

Variant	polymerase ribozyme fitness (log ratio)
C14G A30U U61A G92A C99A A115G	≤ -4.2
C14G A91U A97G	-3.96
U13A C18G G50C C72G A91C G92A G140A	≤ -4.2
U13A C38U G83C G140A	≤ -4.2
C14A C36U A41G U53A C87A G126A	≤ -4.2
C14A C35U G58A G86A C96U	-3.96
C14A A49G G92C A107G G136A	≤ -4.2
U13G A22C G68C G88A	≤ -4.2
C14A U55G A73G C75G C85G C114A	≤ -4.2
U13A A17U A24C A60G G84U A106G A142G A147U	≤ -4.2
A12U G58A	-0.217
A12U A28U U44G C93A U102A	≤ -4.2
A12U C18A C36U C57A C95U A97G A98U C125U	-3.95
U13C C87A	≤ -4.2
C14A C38A G42C U56G G67C G84A C108U U127C	≤ -4.2
C14G C38U C51A C57U G112U U144G	≤ -4.2
U13G A40U A60C	≤ -4.2
U13A A91G C114U A120G	-4.09
U13A A19U A37C U45A A49C C51U C76U G94A G133U U134A G140U U148A	≤ -4.2
C14G A66C	≤ -4.2
U13G U53G C114U A122U C149U	≤ -4.2

Variant	polymerase ribozyme fitness (log ratio)
U13C A19G U45G C93A A106U	-2.34
C14A A16C G46A G67C C85A C95A	≤ -4.2
C14G C32G	-4.17
C14G A19U U61A A97G G133U G141A	≤ -4.2
C14G A40C C51G G65A C85A U139G	≤ -4.2
U13G C87U	-1.62
U13G A40U A49C G65U C103G G117U U145G	≤ -4.2
C14G C36U G42A C63A G86U A119C A142U	≤ -4.2
A12U A37G C69G A122C G126A A150G	≤ -4.2
A12U G50U C72U G126A	-1.33
U13C A29U A52C G86C A107C U109A	≤ -4.2
A12U G25C C35U G81A C85U	≤ -4.2
U13C A49C C57G G68C G83C G84A U101G A115U	≤ -4.2
C14G A20U C76A	-3.92
A12U C54U U134A U145G	-3.56
A12U U53A U56A A66C A113C	≤ -4.2
U13A G46U G59A A91G C95U G117A	≤ -4.2
U13A A52C C87A G88U U135C	≤ -4.2
U13A U15C A26U C85G G141C	≤ -4.2
A12U A20C A29C U78G A91U	≤ -4.2
C14A C54U G83U C95U U111G U134G	≤ -4.2
